The assay deals with mCMV. Format: in vivo, mouse.

Results on one molecule are retold here after patent publication US20190125701A1 (priority 2016, published 2019).

`CCCC(C(N)=O)C(C)CC` (centres unmarked) [SPD, 3-methyl-2-propylpentanamide]: under “mouse, in vivo”, the “body weight reduction versus control mice” value amounted to 20%. Moreover, the “survival of infected pups” value (same schedule, survival at PND 30, […]) turned out to be 67%.
